The list shows a part of the results.

The experiment addresses T1, OsWOX13 (Oryza sativa, UniProt Q5QMM3 1-267).
T1 sequence: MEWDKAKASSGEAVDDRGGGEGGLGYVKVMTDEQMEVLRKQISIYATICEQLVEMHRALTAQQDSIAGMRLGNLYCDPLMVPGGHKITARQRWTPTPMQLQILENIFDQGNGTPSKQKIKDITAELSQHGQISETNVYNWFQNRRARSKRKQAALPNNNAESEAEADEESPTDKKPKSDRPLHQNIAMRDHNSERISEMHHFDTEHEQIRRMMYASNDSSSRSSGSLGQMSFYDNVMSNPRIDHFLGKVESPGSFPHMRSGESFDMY
Description: protein-binding microarray (RPBM); PBS, 2% BSA, 51.3 ng/ul salmon testes DNA, 50 uM zinc acetate, 200 nM TF, 25 C, 1 h; high values mean tight binding. Particulars: protein: recombinant; tags: N-terminal polyhistidine and DsRed monomer fusion (pET32a); label: CyDye5-dUTP incorporated in the synthesized complementary strand; 3' TTTTT single-stranded linker to array surface; dsDNA, one strand shown. The method, boiled down:
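Polyhistidine-tagged DsRed fusions of transcription factors, joined at the N-terminus, were expressed in E. coli BL21-CodonPlus and isolated on Ni–NTA. They were incubated at 200 nM for 1 h at 25 °C on a custom Agilent array, double-stranded and BSA-blocked, in PBS with 2% BSA, salmon testes DNA and 50 µM zinc acetate. The binding signal is per-feature fluorescence intensity (arbitrary units) read on an Axon 4000B scanner after washing.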
Turning to “TGCAATTGATTTCACAAACCATGGGAGATGGTGACGTGCACGGAGTCACCTAGTGCAG”, the binding signal is 18900 fluorescence intensity (a.u.).

With “TTGTGCTTTCCATCCAATTGATTATATGTTTATGGTGTCACGGAGTCACCTAGTGCAG”, the binding signal is 7290 fluorescence intensity (a.u.).

Consider “AGTCGTCAATCACCACAACGCCATCTTCTTCTCGTTAGGTCGGAGTCACCTAGTGCAG”, for which the binding signal is 23500 fluorescence intensity (a.u.).

Consider “AAAAGGGTAATTTTACAATTTTAACAAGGTATCATAAGGTCGGAGTCACCTAGTGCAG”, for which the binding signal is 3730 fluorescence intensity (a.u.).

“GCGCTGATGTACATCACTTCCAAATTTGGTGTCATTCTTGCGGAGTCACCTAGTGCAG”: the binding signal was 4920 fluorescence intensity (a.u.).

“TTGATTAAATTTAAACAAGTTTGTTAGTAAAAGCGAATTACGGAGTCACCTAGTGCAG”: the binding signal was 28200 fluorescence intensity (a.u.).

On to “CATCACACATAATTACATACTTCCTCCGTTTTATAATGTACGGAGTCACCTAGTGCAG”, for which the binding signal is 4930 fluorescence intensity (a.u.).

As for “GCAATAAACAGAATGTTTCCTTTCAAACAGAGTATTAAAACGGAGTCACCTAGTGCAG”, the binding signal is 4230 fluorescence intensity (a.u.).

On to “TACTAATTTGATACTAGTGGTGGTGTCCGAGTCTGCTTTCCGGAGTCACCTAGTGCAG”, for which the binding signal was 29700 fluorescence intensity (a.u.).

Take “TTAATTGTATTATGATGAAATCCGTGTCCATGCGGTTATGCGGAGTCACCTAGTGCAG”: the binding signal was 14700 fluorescence intensity (a.u.).

“ACTTTATTGCCAAATTTGGTAAATACATAAGAAATCCTGGCGGAGTCACCTAGTGCAG”: the binding signal is 6740 fluorescence intensity (a.u.).

Turning to “ACCATGATATTTGGTATGATTGGAACAAAGAAAGGACCAGCGGAGTCACCTAGTGCAG”, the binding signal was 22400 fluorescence intensity (a.u.).

Turning to “ACTTTAATTAGTCGTGATCAATCAATCAATCTGAATCTGTCGGAGTCACCTAGTGCAG”, the binding signal is 65100 fluorescence intensity (a.u.).

On to “CTCTTATTAATTAATTGCCGCCTGTTTTAGCTAGCCTTTGCGGAGTCACCTAGTGCAG”, for which the binding signal is 48800 fluorescence intensity (a.u.).

For “ATTTGTGGCTCATAATTTGTTCTTCATGATTACAGCTTGACGGAGTCACCTAGTGCAG”, the binding signal is 4040 fluorescence intensity (a.u.).

As to “GATAATCAAATTATTAGTAAATATAGTTCGTCCTTAATTACGGAGTCACCTAGTGCAG”, the binding signal was 4540 fluorescence intensity (a.u.).

In the case of “TTATTCTTGTTAATTAGTTTTAGGTGGCAAGATCTATGTCCGGAGTCACCTAGTGCAG”, the binding signal was 5470 fluorescence intensity (a.u.).

As for “GTCACACCAATCATCGGCGGCTCTGCCATTGTACTCATGTCGGAGTCACCTAGTGCAG”, the binding signal is 6380 fluorescence intensity (a.u.).

On to “ACCTTGGTGAAACACAAATTAATTACTCGCCCACGTAGATCGGAGTCACCTAGTGCAG”, for which the binding signal was 3810 fluorescence intensity (a.u.).

Regarding “CCAGATTGAATTCCCCGACGAGAAATCCGCCACAGCCGCCCGGAGTCACCTAGTGCAG”, the binding signal is 38800 fluorescence intensity (a.u.).

“GGACTAATTACGGCGGGCATTATCCACGGAAGAGGCCGCACGGAGTCACCTAGTGCAG”: the binding signal is 15100 fluorescence intensity (a.u.).

For the sequence “CTTAACCAATAATGTGCTAATGATTTACCTTCTTTACTATCGGAGTCACCTAGTGCAG”, the binding signal is 9150 fluorescence intensity (a.u.).

Regarding “ATTAGCTAATATTTAATTAATCACACGTTAAACGCTGCTCCGGAGTCACCTAGTGCAG”, the binding signal is 8210 fluorescence intensity (a.u.).

As to “CGACTGATTGGTTGGGGTCATGGTTGGAACAAAATTTCCTCGGAGTCACCTAGTGCAG”, the binding signal was 52800 fluorescence intensity (a.u.).

On to “ACTGATAGACCGAGAAGAGGACGCTTGGCCGACCTTGAATCGGAGTCACCTAGTGCAG”, for which the binding signal was 9960 fluorescence intensity (a.u.).

Take “GTTAACATTGTTCTTAAATTTGCTACTTGCACGAGCATTACGGAGTCACCTAGTGCAG”: the binding signal is 4140 fluorescence intensity (a.u.).

With “CCTAAATTTACTTAAGGAGTAGGGACTGGAGTAGAGTTGTCGGAGTCACCTAGTGCAG”, the binding signal was 10700 fluorescence intensity (a.u.).

With “GTGACTGATTGACAGTATCAACCATCTAGTGTTAAGATAGCGGAGTCACCTAGTGCAG”, the binding signal is 52800 fluorescence intensity (a.u.).

With “ATGCAAATTGGATGGTTGAGATTACGCGTGTCTGTCAGATCGGAGTCACCTAGTGCAG”, the binding signal was 12300 fluorescence intensity (a.u.).

As to “TGTGTAATTGGGCCGGGCCCAAGAGGCCAAGTTTGTGATTCGGAGTCACCTAGTGCAG”, the binding signal is 7900 fluorescence intensity (a.u.).

As for “CTTATGATTTTATTTAACCTGGTTTTGAAAGACAGGGGTTCGGAGTCACCTAGTGCAG”, the binding signal was 18100 fluorescence intensity (a.u.).

As for “AATTAACGGAGGAAACTCCAATCAGATACGCAGACGGACACGGAGTCACCTAGTGCAG”, the binding signal was 8430 fluorescence intensity (a.u.).

Take “TCGATTGGGGATTGGGGATTGGGGATCAGGAGGGATGGGGCGGAGTCACCTAGTGCAG”: the binding signal was 23300 fluorescence intensity (a.u.).

Turning to “CAACTACATTTCCACTTGATTGGTATCGGATCGTCGATCTCGGAGTCACCTAGTGCAG”, the binding signal was 31300 fluorescence intensity (a.u.).

For “TAAGGTGATTTTAAATGTTTACTTCACACGTAGTACTGTTCGGAGTCACCTAGTGCAG”, the binding signal was 4540 fluorescence intensity (a.u.).

Take “AAATTTGCAATTAGCCCTTAATTATAAGTTGTTTCTTCTTCGGAGTCACCTAGTGCAG”: the binding signal was 17900 fluorescence intensity (a.u.).

Turning to “AACAGATGGGACGATGATTTGGCTAGATATTCGTCAAGATCGGAGTCACCTAGTGCAG”, the binding signal is 7340 fluorescence intensity (a.u.).

Turning to “CAAACTGAATTGCACAAATTAAATCAAAACAGGAAACATTCGGAGTCACCTAGTGCAG”, the binding signal was 7520 fluorescence intensity (a.u.).

Consider “CCAATTTGACGTGAAATGTTTAGATGATCTCTTGCCAGTACGGAGTCACCTAGTGCAG”, for which the binding signal is 4560 fluorescence intensity (a.u.).

As for “GGAGTAATTAATACCACCCATACGTATACATATATTCTCTCGGAGTCACCTAGTGCAG”, the binding signal was 8840 fluorescence intensity (a.u.).

In the case of “GTTGATAACCCGATAATCATCGCGGCGCCAGTATTCGTCACGGAGTCACCTAGTGCAG”, the binding signal is 3780 fluorescence intensity (a.u.).

As to “ACAACGGATAGACTGATAAATTCTGCAGGGCGCATTGAATCGGAGTCACCTAGTGCAG”, the binding signal was 4260 fluorescence intensity (a.u.).

Values taken from PMC7819943, “Rice protein-binding microarrays: a tool to detect cis-acting elements near promoter regions in rice”.
